Results published in the supplement of paper PMC9174493.
This is one part of the list. Single values of this set are uncertain. Values with irradiation are relative to irradiated vehicle.

System: A549-Dual
Assay: NF-kB reporter (SEAP) activity, viability-corrected, relative to vehicle (fold change vs vehicle); higher = more activation of STING-IRF / NF-kB immune response reporter
Details: 3 µM; irradiation: none
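Also: viability correction based on the alamar blue assay, with concentrations leaving 10% survival or less dropped.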

Row | Structure (SMILES) | NF-kB reporter
1 | CC(=O)OC(C)C(C)C(=O)OCC12C3CC4(C)C(=CCC5C6(C)CCC(OC7OC(C(=O)[O][Na])C(OC8OC(CO)C(O)C(O)C8O)C(O)C7OC7OCC(O)C(O)C7O)C(C)(CO)C6CCC54C)C1CC(C)(C)C(O3)C2O (centres undefined) [Sodium Aescinate] | 1.26
2 | CCC(=O)OC1(C(=O)SCF)C(C)CC2C3CC(F)C4=CC(=O)C=CC4(C)C3(F)C(O)CC21C (centres undefined) [Fluticasone propionate] | 0.771
3 | CCCCC1(COC(=O)CCC(=O)O)C(=O)N(c2ccccc2)N(c2ccccc2)C1=O [Suxibuzone] | 1.06
4 | CS(=O)(=O)Nc1cc2occ(NC=O)c(=O)c2cc1Oc1ccccc1 [Iguratimod] | 1.23
5 | COc1cc2nccc(Oc3ccc(NC(=O)Nc4cc(C)on4)c(Cl)c3)c2cc1OC [Tivozanib (AV-951)] | 0.772
6 | Cc1ccc(S(=O)(=O)O)cc1.NC(=O)c1cccc2cn(-c3ccc(C4CCCNC4)cc3)nc12 (centres undefined) [Niraparib (MK-4827) tosylate] | 1.37
7 | CC(C)OC(=O)CCC/C=C\CC1C(O)CC(O)C1CCC(O)CCc1ccccc1 (centres undefined) [Latanoprost] | 0.576
8 | O=c1[nH]cc(F)c(=O)[nH]1 [Fluorouracil (5-Fluoracil, 5-FU)] | 1.11
9 | CC1(C(=O)O)CCC2(C)CCC3(C)C(=CC(=O)C4C5(C)CCC(OC6OC(C(=O)O)C(O)C(O)C6OC6OC(C(=O)O)C(O)C(O)C6O)C(C)(C)C5CCC43C)C2C1.N.N (centres undefined) [Diammonium Glycyrrhizinate] | 1.24
